“And” between values parts separate entries of the source, which are not always exact repeats. Equal values may be shown once.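 Dose response: 5 concentrations. Exposure: 48 h. Format: 96-well plates. Endpoint: linear interpolation; highest concentration if not reached. Here, GI50 denotes the concentration required for 50% inhibition of growth. TGI marks complete inhibition of growth.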
Test system: NCI-H322M lung
Assay: NCI-60 cell line screen, 48 h

| SMILES | TGI | GI50 |
| --- | --- | --- |
| O=C(NCP(=O)(O)O)c1cccnc1 | > 100 µM |  |
| Cc1csc2nc3[nH]ncc3c(=O)n12 | > 100 µM |  |
| O=C(NCCN1CCCC1)c1cn2c(ccc3sc4ccccc4c(=O)c32)n1 | 20.3 µM |  |
| CC1=NN(C(=O)c2ccccc2O)C(c2ccccc2Cl)C1C(=O)Nc1ccccc1 (stereo not drawn) | > 100 µM |  |
| Oc1ccc(N=Nc2ccc(N=Nc3ccccc3)cc2)cc1 | 14.6 µM | 2.53 µM |
| N#CC(C#N)=C1SCC(=O)CS1 | > 100 µM |  |
| Nc1cccc(C#Cc2cccc(C#Cc3cccc(N)n3)n2)n1 | > 100 µM |  |
| N#C/C(=C\c1ccc(Br)cc1)c1nc(-c2cc3ccccc3oc2=O)cs1 | > 50 µM |  |
| CC[N+]1(C)CCC(O)(/C=C/c2ccc(Cl)cc2)C(C(=O)/C=C/c2ccc(Cl)cc2)C1 (stereo not drawn) | 32 µM |  |
| C/C(=C\CC[C@]1(C)OC(C)(C)OC1CC/C(C)=C/CO[Si](c1ccccc1)(c1ccccc1)C(C)(C)C)CC/C=C/CO[Si](C)(C)C(C)(C)C (stereo partly drawn) | > 100 µM |  |
| CC(=O)OCC1OC(n2c(C)c(C(C)=O)c(-c3cccc4ccccc34)c(C#N)c2=S)C(OC(C)=O)C(OC(C)=O)C1OC(C)=O (stereo not drawn) | > 100 µM |  |
| S=C(Nc1ccccc1)N(Cc1ccccc1)c1ccccc1 | > 100 µM |  |
| COc1cc(C2(O)c3ccccc3C3=NCCN32)cc(OC)c1OC (stereo not drawn) | > 100 µM |  |
| CSC(=S)OC1C(CO[Si](C)(C)C(C)(C)C)OC2OC(C)(C)OC21 (stereo not drawn) | 41.1 µM |  |
| COC(=O)c1c(O)ccc2c1c1c(n2-c2ccc(OC)cc2)C(=O)c2ccccc2C1=O | 56.2 µM |  |
| OCCNCCNc1c2ccccc2nc2oc3ccccc3c12 | > 100 µM | 19.4 µM |
| O=P1(O)c2ccccc2Nc2cc(C(F)(F)F)ccc21 | > 100 µM |  |
| COc1cc(C(=O)CC2(O)C(=O)Nc3c(Cl)cc(Cl)cc32)ccc1O (stereo not drawn) | > 100 µM |  |
| CNc1nc(N(C)C)nc(N(C)C)n1 | > 100 µM and 4290 µM | > 100 µM and 1530 µM |
| CCCCCCCCCCCC[n+]1ccc(C(N)=O)cc1 | 26.6 µM | 11.8 µM |
| CCOC(=O)/C=C/c1c[nH]c(C(=O)OCC)c1 | > 100 µM |  |
| Cc1ccc(/C=C2\CCCC\C2=N\O)cc1 | > 100 µM |  |
| C1=NCCNCCN=Cc2ccccc2OCc2cccc(n2)COc2ccccc21 | > 100 µM |  |
| CN1CCN(CCCCN2c3ccccc3Sc3ccc(N=[N+]=[N-])cc32)CC1 | 17.9 µM |  |
| Clc1nc(Cl)c(Cc2ccccc2)c(Cl)n1 | 34.2 µM |  |

| SMILES | TGI | GI50 |
| --- | --- | --- |
| N=C(N)c1ccc(-c2ccc(-c3cccs3)s2)nc1 | 0.971 µM | 0.132 µM |
| CC(C)(C)[Si](C)(C)OCC#C[C@@]1(O)CCCCC1CC(Sc1ccccc1)Sc1ccccc1 (stereo partly drawn) | 34.1 µM |  |
| O=C1CCCC1NC(=O)C(F)(F)F (stereo not drawn) | > 100 µM |  |
| Cc1ccc(N2C(=O)/C(=C/c3ccc(N(CCC#N)CCC#N)cc3C)N=C2c2cc([N+](=O)[O-])ccc2Cl)cc1 | > 100 µM |  |
| C/C(=N\O)C(CN1CCCCC1)C(c1ccccc1)c1c(O)c2ccccc2oc1=O (stereo not drawn) | > 100 µM |  |
| CCOC(=O)C#Cc1c(CC(=O)OCC)nnn1[C@H]1O[C@@H](CO)[C@@H]2OC(C)(C)O[C@@H]21 | 34.5 µM | 17 µM |
| CCN1C[C@]2(C)CC[C@H](OCc3ccccc3)C34C5C[C@@H]6CC[C@](O)(C(C[C@@H]32)C14)C5[C@H]6OCc1ccccc1 (stereo partly drawn) | > 100 µM |  |
| CCOC(=O)c1nc2ccccc2nc1Oc1ccc(OC)cc1 | > 100 µM |  |
| O=C(/C=C1/NC(=O)CS1)Nc1ccccc1 | > 100 µM |  |
| O=[N+]([O-])/C=C/COCc1cc2c(cc1Br)OCO2 | > 100 µM |  |
| CN(C)CCNC(=O)c1cc2c3ccccc3[nH]c2c2ncccc12 | 74.5 µM | 14.4 µM |
| CC1(C)C2C/C(=C\c3ccccc3)C(=O)C1C2 (stereo not drawn) | > 100 µM |  |
| O=C1C(=C(C(=O)c2ccccc2)C(=O)c2ccccc2)OC(c2ccccc2)=C1C(=O)c1ccccc1 | 57.1 µM |  |
| C[C@@H]1C[C@@]2(O[C@@H]2C)C(=O)O[C@@H]2CCN3CC=C(COC(=O)[C@]1(C)O)[C@H]23 | > 100 µM |  |
| CSC1C(=O)c2ccccc2/C(=N/Nc2nc3ccccc3s2)C1C (stereo not drawn) | > 50 µM | 20.7 µM |
| COc1ccc(NS(=O)c2ccc(OC)cc2)cc1 (stereo not drawn) | > 100 µM |  |
| O=c1n(CCCCn2c(=O)n(CC3CS3)c3ccccc32)c2ccccc2n1CC1CS1 (stereo not drawn) | > 100 µM |  |
| CCN(CC)CCC(=O)c1ccc(Oc2ccccc2)cc1 | > 100 µM |  |
| N#CC(NNC(=O)c1ccccc1O)c1ccccc1 (stereo not drawn) | > 100 µM |  |
| C=C1C(=O)O[C@H]2[C@H]1CC/C(CNS(=O)(=O)c1cccc3ccccc13)=C\CC[C@@]1(C)O[C@@H]21 | 23 µM | 10.8 µM |
| Cc1nn(-c2nc3ccccc3[nH]2)c2c1C(c1ccc3c(c1)OCO3)CC(=O)N2 (stereo not drawn) | > 30.6 µM | 3.45 µM |
| CC(=O)N1C2=CCCC2(C)c2ccccc21 (stereo not drawn) | > 100 µM |  |
| Cc1cc(=O)oc2cc(OCc3nc4ccccc4c(=O)[nH]3)ccc12 | > 100 µM |  |
| C/C(=N\NC(=S)NNC(=S)N(C)c1ccccc1)c1ccccn1 | > 100 µM |  |
| Cc1ccc(/C(O)=C/c2nc3ccccc3[nH]c2=O)c(C)c1 | > 60.5 µM |  |

| SMILES | TGI | GI50 |
| --- | --- | --- |
| O=C(CC(C(=O)c1cccs1)c1ccsc1)c1ccco1 (stereo not drawn) | > 100 µM |  |
| O=[N+]([O-])c1ccc(NC(=S)Nc2ccccn2)cc1 | > 100 µM |  |
| O=C(OC(/C=C/c1ccccc1)P1(=O)N(Cc2ccccc2)[C@@H]2CCCC[C@H]2N1Cc1ccccc1)c1ccccc1 (stereo partly drawn) | > 100 µM |  |
| N#CN1CCC=C(c2cc3ccccc3[nH]2)C1 | > 448 µM |  |
| CS/C(c1ccccc1)=[N+](/C)[O-] | > 100 µM |  |
| O=C1/C(=C/c2ccc(Cl)cc2)COc2ccc(O)c(O)c21 | 2.98 µM | 1.47 µM |
| CCCCCN(CCCCC)CC(O)c1cc2c(c3ccccc13)CCCC2 (stereo not drawn) | 23.4 µM and 29.5 µM | 10.7 µM and 12.4 µM |
| CC(C)c1nc2c(Cl)c3ncccc3cc2[nH]c1=O | > 100 µM |  |
| CC1CC(C)(O)CC(C(O)CC2CC(=O)NC(=O)C2)C1=O (stereo not drawn) | 2.1 µM |  |
| Nc1nc(Cl)cc(NCCCCCCCCCCCCNc2cc(Cl)nc(N)n2)n1 | > 100 µM |  |
| CC(=O)N1N=C(c2c(O)ccc3ccccc23)CC1c1ccc(Cl)cc1 (stereo not drawn) | > 100 µM |  |
| OC(C/C(=N\N=C(/CC(O)(C(F)(F)F)C(F)(F)F)c1ccccc1)c1ccccc1)(C(F)(F)F)C(F)(F)F | > 10 µM |  |
| C=C(C)[C@H](O)C(O)CC(C)[C@@H]1CCC23CC12CCC1[C@@]2(C)CCC(OC(C)=O)C(C)(C)C2CC(OC2OC(COC(C)=O)C(O)C(O)C2O)[C@]13C (stereo partly drawn) | 12.2 µM |  |
| c1ccc2c3c([nH]c2c1)C1(CCCCC1)c1c([nH]c2ccccc12)C31CCCCC1 | > 100 µM |  |
| Clc1ccc(SCCCCCCCCCCSc2ccc(Cl)cc2)cc1 | > 100 µM |  |
| C/C(=N/NC(=S)NCCc1ccccn1)c1cnccn1 | > 100 µM |  |
| Cc1ccc(S(=O)(=O)NC2=NS(=O)(=O)c3cc(C)c(Cl)cc3S2)cc1 | > 100 µM |  |
| O=C1C[C@H]2CC3(CC[C@H]2CN1)OCCO3 | > 100 µM |  |
| CC(C)C[C@@H]1NC(=O)[C@@H]2CCCN2C(=O)[C@@H]2CCCN2C(=O)[C@H](CC(C)C)NC(=O)[C@H](CO)NC(=O)[C@H](CCCCN)NC(=O)[C@H]([C@H](C)O)NC(=O)[C@@H]2CCCC[C@@H](NC1=O)C(=O)N[C@@H](Cc1ccccc1)C(=O)N1CCC[C@H]1C(=O)N[C@@H](CC(=O)O)C(=O)NCC(=O)N[C@@H](CCCN=C(N)N)C(=O)N2 | > 50 µM | > 50 µM |
| CC1=NN(C(=O)c2ccc(Cl)cc2)C(=O)/C1=C/c1ccc(O)cc1 | > 100 µM |  |
| COc1cc([C@@H]2OC(=O)C3C2C(=O)O[C@H]3c2cc(OC)c(OC)c(OC)c2)cc(OC)c1OC (stereo partly drawn) | > 100 µM |  |
| COc1ccc(/C=C2\CN(C)CC3C2=NC(=S)NC3c2ccc(OC)cc2)cc1 (stereo not drawn) | > 100 µM |  |
| COC(=O)[C@@]1(O)C[C@H]2O[C@]1(C)n1c3ccccc3c3c4c(c5c6ccccc6n2c5c31)C(=O)NC4 | 4.38 µM | 1.14 µM |
| Cc1ccc(S(=O)(=O)Nc2nc3ccccc3nc2Nc2ccc3nsnc3c2)cc1 | > 100 µM | 3.81 µM and 2.78 µM |
| COc1ccc2nc3ccc(OC)cc3c(SCC3CO3)c2c1 (stereo not drawn) | 35.4 µM |  |

| SMILES | TGI | GI50 |
| --- | --- | --- |
| COc1cccc(C[C@H]2COC(=O)[C@]2(O)Cc2cccc(OC)c2)c1 | > 100 µM |  |
| O=C1CCc2cc3c(cc21)CC1(Cc2cc4c(cc2C1)CCCC4)C3 | > 100 µM |  |
| COC1=CC(=O)[C@]2(C)[C@H](C1=O)C(C)[C@H]2c1ccccc1 (stereo partly drawn) | > 100 µM |  |
| c1ccc(SC(CCCCOC2CCCCO2)Sc2ccccc2)cc1 (stereo not drawn) | > 100 µM |  |
| COc1cc(/C=C2\CC3C4CC[C@H]5C[C@@H](O)CC[C@]5(C)C4CC[C@]3(C)C2=O)cc(OC)c1OC (stereo partly drawn) | > 100 µM |  |
| COC(=O)C(CC(=O)Nc1ccc(Cl)c(Cl)c1)C(=O)C(=O)NC1C2CC3CC(C2)CC1C3 (stereo not drawn) | > 100 µM |  |
| COc1ccc2c(c1)N=C1CSC(c3c(Cl)cccc3[N+](=O)[O-])N1C2 (stereo not drawn) | > 100 µM |  |
| CCCCc1ccc(Nc2nc(N)c3ncn(COCCO)c3n2)cc1 | > 100 µM |  |
| N#Cc1nc2cc(F)c(F)cc2nc1-c1ccc(Cl)cc1 | 39.3 µM | 16.4 µM |
| O=C(n1c(=O)n(-c2ccc(Cl)cc2)c(=O)n1C(=O)C(Cl)(Cl)Cl)C(Cl)(Cl)Cl | > 100 µM |  |
| COc1ccc(CCc2ccccc2CC(=O)O)cc1 | > 100 µM |  |
| CN(C)c1ccc(N=Nc2cccc3ncccc23)cc1 | > 100 µM |  |
| COC(=O)[C@@H](C)C[C@H](Cc1ccccc1)NC(=O)c1csc([C@@H](C[C@H](C(C)C)N(C)C(=O)C2(NC(=O)[C@H]3CCCCN3C)CC2)OC(C)=O)n1 | > 33.3 µM | 0.0209 µM and 0.00333 µM |
| CC(C)c1ccc2[nH]c(O)c(C3=Nc4ccccc4C3=O)c2c1 | > 100 µM |  |
| O=C(Cc1ccccc1)NNc1nc(NNC(=O)c2ccncc2)nc(Nc2ccc(Cl)cc2)n1 | > 10 µM |  |
| [C-]#[N+]C1(C(=O)OCC)CC1 | > 100 µM |  |
| COc1ccccc1/C=N/N=C(\N)NO | > 100 µM |  |
| COc1ccc2c(c1)OC(N)=C(C#N)C2c1ccc(F)cc1 (stereo not drawn) | > 100 µM | 5.68 µM |
| Cc1cc(-c2nc3cc(O)ccc3s2)ccc1N | > 100 µM |  |
| CC(=O)c1cccc(NC(=O)C(=O)C(C(=O)c2ccccc2F)C2OC(=O)c3ccccc32)c1 (stereo not drawn) | > 100 µM |  |
| C/C1=C\CC/C(C)=C/C=C(/C(C)C)CC/C(C(=O)O)=C/CC1 | > 100 µM |  |
| Nc1ncc(CN2CCOCC2)c(-c2ccccc2O)n1 | > 100 µM |  |
| CCCN(CCC)C(=O)[C@H](CC)[C@@H]1CC[C@@H](C)[C@@H]([C@H](C)[C@@H](O)[C@@H](C)C(=O)[C@H](CC)C2O[C@]3(C=C[C@@H](O)[C@]4(CC[C@@](C)([C@H]5CC[C@](O)(CC)[C@H](C)O5)O4)O3)[C@H](C)C[C@@H]2C)O1 (stereo partly drawn) | 7.58 µM | 2.38 µM |
| Clc1ccc(-c2nc3ccc(C45CC6CC(CC(C6)C4)C5)cc3[nH]2)cc1 | > 100 µM |  |

From PubChem BioAssay (NCI)
